In series [1] the target is mouse CD3 (Mus musculus, UniProt P04235+P22646). As to the kind of experiment: Binding to mouse CD3.
Series [2] deals with T1, Jurkat cells (human CD3-expressing) (Homo sapiens, UniProt P04234+P07766).
T1 construct: endogenous in cells; host or cells: Jurkat
Nature of the series: FACS binding titration on Jurkat cells. To be noted: Table 7B experiment. The protocol:
A. Briefly, flow cytometric analysis (i.e. fluorescence-activated cell sorting, or FACS) was utilized to determine binding of bispecific antibodies to Jurkat cells or cells expressing human MUC16, followed by detection with a phycoerythrin (PE)-labeled or APC-labeled anti-human IgG antibody. Briefly, 2×10^5 cells/well were incubated for 30 minutes at 4° C. with a serial dilution ranging from 1.33E-07M to 8.03E-12M of each test antibody or isotype control (antibody of same isotype that binds a different antigen with no cross-reactivity to MUC16 or CD3). After incubation, the cells were washed twice with cold PBS containing 1% filtered FBS and a PE-conjugated or APC-conjugated anti-human secondary antibody was added to the cells and incubated for an additional 30 minutes. Wells containing no antibody or secondary only were also used as controls. After incubation, cells were washed, re-suspended in 200 μL cold PBS containing 1% filtered FBS and analyzed by flow cytometry on a BD FACS Canto II.
B. In separate experiments with analogous conditions to that described above, flow cytometric analysis (or FACS) was utilized to determine binding of select bispecific antibodies to Jurkat cells, PEO-1, OVCAR3-Luc and cynomolgus T cells. For the titration analysis, serial dilution of selected MUC16×CD3 bispecific antibodies, a first isotype control antibody (a human chimeric IgG4 antibody that binds an irrelevant human antigen with no cross-reactivity to human or cynomolgus CD3) and a second isotype control antibody (a human chimeric IgG4 antibody that binds an irrelevant human antigen with no cross-reactivity to human MUC16), ranging from 66.6 nM to 0.001 nM.
For FACS analysis, cells were gated by forward scatter height vs. forward scatter area for single events selection, followed by side and forward scatters. The EC50 for cell binding titration was determined using PRISM™ software (GraphPad Software, Inc., La Jolla, Calif.). Values were calculated using 4-parameter non-linear regression analysis. (Liu, J., et al. 2005, Biotechnol Letters 27:1821-1827).
In general terms: Flow cytometry measures light scatter and fluorescence of single cells or particles in a stream.

Series [3] is described as follows: Pharmacokinetics in CD3 humanized mice (CD3^hu/hu). The following applies: single 0.4 mg/kg i.p.
In series [4] the test system is mouse MUC16. Nature of the series: Binding to mouse MUC16.
For series [5], the target named is T2, soluble monomeric human MUC16 (hMUC16.mmh, last five SEA domains, SEQ ID: 1902) (Homo sapiens, UniProt Q8WXI7).
T2 construct: mmh (myc-myc-hexahistidine)
As to the kind of experiment: Surface plasmon resonance (BIACORE) binding to hMUC16 fragment at 25° C. The following applies: anti-MUC16/anti-CD3 bispecific antibodies, Table 6.

The subject of series [6] is human T cells (CD2+). As to the kind of experiment: T cell activation (CD69/CD25 upregulation on CD2+ T cells) in cytotoxicity co-culture. In kind it is cell-based. As to the method: Briefly, MUC16-expressing (OVCAR3) cell lines were labeled with 1 μM of the fluorescent tracking dye Violet Cell Tracker. After labeling, cells were plated overnight at 37° C. Separately, human PBMCs were plated in supplemented RPMI media at 1×10^6 cells/mL and incubated overnight at 37° C. in order to enrich for lymphocytes by depleting adherent macrophages, dendritic cells, and some monocytes. The next day, target cells were co-incubated with adherent cell-depleted unstimulated PBMC (Effector/Target cell 4:1 ratio) and a serial dilution of relevant bispecific antibodies or Isotype control (concentration range: 66.7 nM to 0.25 pM) for 48 hours at 37° C. Cells were removed from cell culture plates using an enzyme-free cell dissociation buffer, and analyzed by FACS. See results represented in Table 8A.
B. In analogous studies, MUC16-expressing (PEO-1 or OVCAR3-Luc) cell lines were labeled, plated and incubated overnight as described. Serial dilutions of MUC16×CD3 bispecific antibodies or isotype control were co-incubated. See results depicted in Tables 8B and 8C, and FIGS. 12A-12B.
For FACS analysis, cells were stained with a dead/live far red cell tracker (Invitrogen). 5×10^5 counting beads were added to each well immediately before FACS analysis. 1×10^4 beads were collected for each sample. For the assessment of specificity of killing, cells were gated on live Violet labeled populations. Percent of live population was recorded and used for the calculation of normalized survival.
T cell activation was assessed by incubating cells with directly conjugated antibodies to CD2, CD69 and/or CD25, and by reporting the percent of early activated (CD69+) T cells and/or late activated (CD25+) T cells out of total T cells (CD2+).

“And” between values parts separate entries of the source, which are not always exact repeats. Equal entries are not always repeated. Where two headings read alike, the source gives them in different places.

These results are taken from patent US10941208B2, “Anti-MUC16 antibodies” (Regeneron Pharmaceuticals, Inc., priority 2016, dated 2021).

T2 sequence (Q8WXI7 with tags, fused parts or gaps): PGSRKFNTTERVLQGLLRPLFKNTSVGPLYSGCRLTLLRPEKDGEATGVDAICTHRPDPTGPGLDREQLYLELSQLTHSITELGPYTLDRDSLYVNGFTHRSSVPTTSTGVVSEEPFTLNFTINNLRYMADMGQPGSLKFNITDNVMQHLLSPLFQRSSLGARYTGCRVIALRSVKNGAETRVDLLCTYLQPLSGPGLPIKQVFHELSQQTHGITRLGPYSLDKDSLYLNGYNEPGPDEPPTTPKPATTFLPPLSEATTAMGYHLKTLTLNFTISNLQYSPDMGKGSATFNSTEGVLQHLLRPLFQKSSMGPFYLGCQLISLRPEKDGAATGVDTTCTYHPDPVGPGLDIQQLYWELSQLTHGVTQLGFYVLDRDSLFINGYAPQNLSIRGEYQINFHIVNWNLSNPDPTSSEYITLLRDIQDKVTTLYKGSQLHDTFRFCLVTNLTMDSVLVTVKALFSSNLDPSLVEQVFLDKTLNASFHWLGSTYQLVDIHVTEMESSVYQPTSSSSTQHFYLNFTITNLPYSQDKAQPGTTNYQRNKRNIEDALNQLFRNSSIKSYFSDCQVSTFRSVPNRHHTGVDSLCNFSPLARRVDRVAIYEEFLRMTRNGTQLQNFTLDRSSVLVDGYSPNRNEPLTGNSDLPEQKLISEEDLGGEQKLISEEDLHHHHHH
mouse CD3, sequence (P22646 22-189): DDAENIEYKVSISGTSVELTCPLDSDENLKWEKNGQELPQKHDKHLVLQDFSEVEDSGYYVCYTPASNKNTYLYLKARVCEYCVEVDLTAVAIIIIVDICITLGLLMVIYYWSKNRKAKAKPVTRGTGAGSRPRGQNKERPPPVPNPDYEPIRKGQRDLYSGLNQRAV
mouse CD3, sequence (P04235 22-173): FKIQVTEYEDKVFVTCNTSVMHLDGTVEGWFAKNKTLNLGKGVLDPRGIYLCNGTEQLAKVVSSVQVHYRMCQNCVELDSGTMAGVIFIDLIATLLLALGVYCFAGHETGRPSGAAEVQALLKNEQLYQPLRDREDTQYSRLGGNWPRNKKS
T1 sequence (P07766 23-207): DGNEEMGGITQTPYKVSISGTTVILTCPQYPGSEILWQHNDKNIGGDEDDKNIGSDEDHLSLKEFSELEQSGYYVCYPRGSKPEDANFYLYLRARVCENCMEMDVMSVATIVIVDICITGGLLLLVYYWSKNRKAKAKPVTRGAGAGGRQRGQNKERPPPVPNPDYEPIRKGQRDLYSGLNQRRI
T1 sequence (P04234 22-171): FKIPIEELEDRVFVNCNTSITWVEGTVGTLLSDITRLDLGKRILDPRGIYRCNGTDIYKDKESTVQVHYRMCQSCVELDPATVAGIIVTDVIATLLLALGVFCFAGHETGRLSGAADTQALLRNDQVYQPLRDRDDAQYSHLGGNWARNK
T1 sequence (P09693 23-182 partner): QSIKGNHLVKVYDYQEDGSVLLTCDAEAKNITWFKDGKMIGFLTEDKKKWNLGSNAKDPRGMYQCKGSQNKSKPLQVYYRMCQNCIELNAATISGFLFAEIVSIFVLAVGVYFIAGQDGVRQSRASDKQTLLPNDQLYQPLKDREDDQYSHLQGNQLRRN
T1 sequence (P20963 22-164 partner): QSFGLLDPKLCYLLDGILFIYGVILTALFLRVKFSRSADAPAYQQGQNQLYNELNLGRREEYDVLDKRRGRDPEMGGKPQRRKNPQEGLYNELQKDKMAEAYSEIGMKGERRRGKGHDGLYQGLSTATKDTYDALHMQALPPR

B1: BSMUC16/CD3-005: anti-MUC16×CD3 bispecific, modified (chimeric) IgG4 Fc; H1H8767P HCVR (SEQ 18), CD3-VH-G20 (SEQ 1866), common LCVR SEQ 26 (antibody, V domains shown)
VH 1: QVQLVESGGGLVKPGGSLRLSCAASGFTFSNYYMSWVRQAPGKGLEWISYISGRGSTIFYADSVKGRITISRDNAKNSLFLQMNSLRAEDTAVYFCVKDRGGYSPYWGQGTLVTVSS
VH 2: EVQLVESGGGLVQPGRSLRLSCAASGFTFDDYSMHWVRQAPGKGLEWVSGISWNSGSIGYADSVKGRFTISRDNAKNSLYLQMNSLRAEDTALYYCAKYGSGYGKFYYYGMDVWGQGTTVTVSS
VL: [… about 100 residues …]PITFGQGTRLEIK
Regarding B1, the “binding to mouse CD3” value in series [1] was “Neither BSMUC16/CD3-001 or BSMUC16/CD3-005 bind mouse MUC16 or mouse CD3”. Also, the EC50 in series [2] was 62600 pM; in series [6] (co-culture with OVCAR3-Luc target cells, read-out: T cells activation (CD25 upregulation) EC50), 117 pM; in series [6] (co-culture with PEO-1 target cells, read-out: T cells activation (CD25 upregulation) EC50), 106 pM; in series [6] (co-culture with PEO-1 target cells, read-out: T cells activation (CD69 upregulation) EC50), 17.2 pM. In series [3], this molecule displayed an AUClast of 36 µg·days/mL. The “T1/2 (Estimated half-life observed)” value in series [3] was 11 days. Besides, the Terminal antibody concentration in series [3] stood at 0.66 µg/mL. Moreover, in series [3] (0.4 mg/kg), the “Cmax (Peak concentration)” value is 3600 ng/mL and 3500 ng/mL. Moreover, the “Total mAb Concentration In Mouse Serum, Mean” value in series [3] (Time 0.13 d) was 3.35 µg/mL; in series [3] (Time 0.25 d) it was 3.40 µg/mL; in series [3] (Time 1.00 d) it was 2.72 µg/mL; in series [3] (Time 3.00 d) it was 1.95 µg/mL; in series [3] (Time 7.00 d), 2.31 µg/mL; in series [3] (Time 14.00 d), 1.01 µg/mL. The “Total mAb Concentration In Mouse Serum, Mean” value was found to be 1.19 µg/mL in series [3] (Time 21.00 d) and 0.66 µg/mL in series [3] (Time 28.00 d). Besides, in series [4], the “binding to mouse MUC16” value was “Neither BSMUC16/CD3-001 or BSMUC16/CD3-005 bind mouse MUC16 or mouse CD3”. Further, the ka in series [5] was 94100 M⁻¹ s⁻¹. Also, the kd in series [5] is 0.000564 s⁻¹.

A word on the EC50: it is the midpoint of the concentration-response curve.
